# Laboratory results taken from the supplement of paper PMC11417369.
# Some of the results follow.
# Tested on: PfAP2-HC AP2 domain (GST-tagged)
# Assay: gcPBM binding intensity (ln(normalized median fluorescence intensity)); higher = stronger DNA binding
# Outline: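 For binding intensity, the highest Masliner-normalised natural-log median intensity across replicate spots of either probe orientation was taken. Protein bound to the array was stained with Alexa488 anti-GST antibody and scanned at 488 nm. The protein, GST-tagged P. falciparum DNA-binding domains from E. coli at about 25 μg on average, had been applied for 1 h to an Agilent 4 × 180k array of primer-extended double-stranded 36-bp intergenic genomic probes and negative controls.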
row,Sequence,gcPBM binding intensity (ln)
1,TATAAATATGTATATACACACTTTTAATATTCATAA [CACACA_site7856],9.68
2,TGCGTATTCTTATTAGGTACACATATTCGTGATAAT [XGTACX_site5681],9.61
3,TAATATTTTTATTATTAGAATTGTATATGTTTAATA [CACACA_negctrl_site1833],9.21
4,TTTTCTAAAATATTCATAATAAATCAAAAAAAAAAA [GTGCAC_negctrl_site320],9.29
5,CATATATCATAAATATGTACGAAATAAAAGAATCAT [XGTACX_site942],9.71
6,ATAAAAGGAATATTTGCATGTGGTAGTACATAACAT [TGCATGCA_site978],9.71
7,TACAAATATAGACACACACACATATATATATATATA [CACACA_site585],10.1
8,GATTTATATATATAAAATAATTGAATATTTTCTTTT [CACACA_negctrl_site801],9.48
9,TAATTTGAAAAATTGTGTACTCATAAAATAAATAAA [XGTACX_site2138],9.52
10,ATAAAAAAATAAAACACACACATATAGATTATAGAT [CACACA_site7343],10.3
11,ATAGATGATATACGTAAACACACAAATAAAAAAAAT [CACACA_site9095],9.99
12,TTTATTTTTCATAATTGTACAAAAATAAATGGAAAC [XGTACX_site5144],9.47
13,TACATACAGATATATACACACATATAAAATATAGAT [CACACA_site6319],9.95
14,ATTATATATAAATATACACACATATATAAAATACAT [CACACA_site5298],9.89
15,AAGAGAAAAATATGGTTGCACTAAAAATATATATTT,9.57
16,AAATTAAAAAGAGCTTGTACAGATGTATACATAATA [XGTACX_site3882],9.97
17,TTTATAATTCTTACAACACACAATGTACATTTATAT [CACACA_site1261],9.92
18,TATATGAAGCTATAGACACACATATAAAAATAGAAT [CACACA_site1313],9.9
19,AATTTATATGTTTTGTGTACACAATTTATTAAATTA [XGTACX_site6448],9.87
20,TACATATATATATGTATATATATATATATATAAATA [XGTACX_negctrl_site351],9.76
21,AAATGTGCATTATGTTGTACAGTCGAAATTTTTTTT [XGTACX_site3812],9.65
22,ACATAACTGATATATACACACAATACAAATATAGAT [CACACA_site7328],10

row,Sequence,gcPBM binding intensity (ln)
1,ATGAATAAATGAACATGTACATATATATATATATTA [XGTACX_site5005],9.81
2,TAAAAAATTAATAAAGTGCATAAATATTACAATATT,9.66
3,TTTTCTAAATATTATAGTACTCTTAATAATATTAAC [XGTACX_site4222],9.34
4,TTAACAAAATATAGCACACATAAATATATATTTATG [CACACA_site351],9.71
5,ATTCATATATTTATTGCATGCAAAGTAAAATAAATA [TGCATGCA_site307],9.56
6,GACATATTAGAAGGGTGTACATACTTTTAATCATTT [XGTACX_site1698],9.7
7,AATATTAAAATATAAACACACAAAATTCAATTATAT [CACACA_site5971],9.89
8,TCTTACAAAAAACAAACAGAGAAAAATATAAGGAAA [XGTACX_negctrl_site520],9.61
9,CATACACAAGAAAATTCACACACACCCATATATATA [CACACA_site9288],11.3
10,AACATACAGAAACACACACACACACCCACACCCACA [CACACA_site493],11.5
11,TTTTTTTTTTTGTATCGTACATTTATAATGTTTATA [XGTACX_site6804],9.68
12,TTTTTTTCATATAACACACACACAAAAATAATGTGG [CACACA_site3688],10
13,TAAACATTGTAAAGGAGTACAAAATTTTTTTTATGA [XGTACX_site7757],9.55
14,AATAATAAAAAATACACACACATATATATATATTAC [CACACA_site3464],10.2
15,ATATATATTTATTTATGTACGAATAAATTTACGAAT [XGTACX_site5190],9.51
16,TTAATAGGTCGAAGTAGTACATAAAAATATATATAT [XGTACX_site5960],9.67
17,AATATCATTATATAAGTGCATTTTTTAAAAGATAAA [GTGCAC_site9479],9.52
18,AAGTTAACAATATGAAGTACAAATGAAAAAAAAAAA [XGTACX_site666],9.74
19,ATATATATATATCATAGTACACATATGTGTCTCGTG [XGTACX_site774],9.89
20,TTGTTATAGAAGCATTCACACACACCCATACATACA [CACACA_site8414],10.8
21,ACTGTCGTTTTAAAGAGTACATAAAATATTAAATTA [XGTACX_site3589],9.14
22,ATGTCTTTGAAAAAAAGTACTTAAAATTATAAAAAT [XGTACX_site147],9.42

row,Sequence,gcPBM binding intensity (ln)
1,TTCTTTTAAAGGTATACATGCGCATGGATTTTTCAT [TGCATGCA_site223],9.89
2,TCAAAGCACAGATACACACACATATATATATATATA [CACACA_site287],10.1
3,AATTAAAAAATTATCACACATATATATATATATATA [CACACA_site5789],9.53
4,AAAACTATTAATGCAAAAAATAAAATATAATAATAA [XGTACX_negctrl_site524],9.69
5,TATATACCACATTGTTGTACGACACATTTACATTTT [XGTACX_site8370],10
6,GGAAACACGATATATACACACATATTTATATTTATA [CACACA_site6250],10.2
7,TCCAAATAAATATATTGTACAGAATTATTGATACCT [XGTACX_site327],9.5
8,ATGTTGTTATAAAGAGTGCAACGTATATGTATCCTT [GTGCAC_site9935],9.67
9,AGAAAAGGAAAATAAACATGCAAAAATAATATTAAA [TGCATGCA_site337],9.67
10,ATTCTGAATGTTATGCGTACATATTAATCCTATTTA [XGTACX_site1216],9.61
11,TAAGGTTCATTAAAGTGTACACATAAATACCGTAAC [XGTACX_site8212],9.78
12,TGTAATAATTATTGCACGCACACAAAAACCTATAGA [CACACA_site2932],9.91
13,AAGTAAATATAATAAGGTACACATAAATAAATAAAT [XGTACX_site1740],9.93
14,AAAAAAAAAAAAAGTACACACTTTTGCGTACAAGTA [CACACA_site5672],9.76
15,TATTTATTATATAAATGTACATAATATATGTATGTC [XGTACX_site2815],9.57
16,TATATCATAAAAAATTGTACATATATATATTATATA [XGTACX_site6726],9.47
17,TGATGGGACATAAATATTGAGATGATCATAAGATAA [TGCATGCA_negctrl_site276],9.69
18,AAAGATAATATATGCACACATATAAATATATAAATA [CACACA_site3477],9.85
19,TTATGATTATAACGTTTTGACATTAGGCATATATAT [CACACA_negctrl_site1396],9.56
20,AAGAAAAAAAAAAAAAAAAAAAAAAAAAATTTATGA [TGCATGCA_negctrl_site294],9.12
21,CAGTTATTTTAATGTGGTACACAATTTTAAAATTAT [XGTACX_site8571],9.52
22,TGAAATGATATATAAACACACATATATAAATATGTA [CACACA_site7616],9.83

row,Sequence,gcPBM binding intensity (ln)
1,AAATATAATTTGCGATGTACACATATATATTTATTT [XGTACX_site1568],9.75
2,ATATAAAATGAACATAGTACTTTTTATATATTTTAA [XGTACX_site7461],9.42
3,TACCTATACCTATACACACACACACGGAAATAAATA [CACACA_site6750],10.3
4,AATTTTATAAAAAGTAGTACATATCAAACACCTTGA [XGTACX_site2297],9.65
5,AATGTGCCCACGCGTACACACAAAAAAAGAAAAAAA [CACACA_site2003],9.7
6,ATAAAATAATTAATGGGTACATAATTAAATAAAGAG [XGTACX_site3309],10
7,TTTTAAAAAAAAAAAAAAAAAATTAAAATAATTCAA [TGCATGCA_negctrl_site69],8.82
8,CATACATAGAAACACACACACACACCCACCCACAAA [CACACA_site494],10.6
9,ATTCTATATTTAAATGCATGCACTTTCTATTTTTTT [TGCATGCA_site435],10.2
10,TTTAATTTGTTATACACACACAAAAAAAATTATAAA [CACACA_site3937],9.88
11,GACACTTTGAAGGGTACATGCAGAAAAAAAAAAAAA [TGCATGCA_site89],9.34
12,TTTTATTTATCTAATTGTACTCATTCTTTTTTGATG [XGTACX_site2876],9.65
13,GCTAAAAGTATATGCACACACATATAGATGCACATA [CACACA_site6868],10.1
14,AATACAATTTTTAACACACACACAATAATACAGATA [CACACA_site4823],11.2
15,GTGTAATTTATTGTGTTGCACTTTTTTTTTTTTTTT [GTGCAC_site9644],9.84
16,AAGATAGACTCATATGCATGCATTCACATACCAACA [TGCATGCA_site179],9.79
17,TTAATATAGGAATATGCACACATATATACATACATA [CACACA_site8432],9.8
18,GGATAAGATGTATATACACACAATTTAAAAAAATAA [CACACA_site910],9.82
19,TTTGATAAAATTGATATCCTATAATTATATAAATAA [GTGCAC_negctrl_site317],9.36
20,AAAAAACAGACATACACACACACACCCATATATATA [CACACA_site3392],10.8
21,GATAAAATAAAAGTGGGTACTTAAATATATATATAA [XGTACX_site8457],9.77
22,AAAAGTACAATATATATGTATGTGTATAGAATGGTT [TGCATGCA_negctrl_site76],9.95
